Source: patent publication US20230250147A1 (Sanofi, published 2023)

B1: GLP-1RA/FGF21 Fc fusion protein SEQ ID NO: 29 (Fc fusion)
chain: HGEGTFTSDLSILLDEEAVREFIEWLLATGPVSGAPPPSGGGGGGGSGGGGSGGGGSA[… human IgG4 Fc with changes …]GGGSGSAHPIPDSSPLLQFGGQVRQRYLYTDDACQTEAHLEIREDGTVGGAADQSPESLLQLKALKPGVIQILGVKTSRFLCQRPDGALYGSLHFDPEACSFRELLLEDGYNVYQSEAHGLPLHLCGNKSPHRDPAPRGPARFLPLPGLPPAPPEPPGILAPQPPDVGSSDPLSMVYPSQGRSPSYAS
B2: GLP-1RA/FGF21 Fc fusion protein SEQ ID NO: 194 (Fc fusion)
chain: HGEGTFTSDLSKQLEKELVRLFYEWLINGGHKSGKPPPKGGGGGGGSGGGGSGGGGSA[… human IgG4 Fc with changes …]GGGSGSAHPIPDSSPLLQFGGQVRQRYLYTDDACQTEAHLEIREDGTVGGAADQSPESLLQLKALKPGVIQILGVKTSRFLCQRPDGALYGSLHFDPEACSFRELLLEDGYNVYQSEAHGLPLHLPGCKSPHRDPAPRGPARFLPLPGLPPAPPEPPGILAPQPPDVGSSDPLSMVGSQGRSPSYAS
B3: GLP-1RA/FGF21 Fc fusion protein SEQ ID NO: 224 (Fc fusion)
chain: GHGEGTFTSDKSKQLEEEAVRLFIEWLKAGGPKKIRYS[… human IgG1 Fc with changes …]GGGSGSAHPIPDSSPLLQFGGQVRQRYLYTDDACQTEAHLEIREDGTVGGAADQSPESLLQLKALKPGVIQILGVKTSRFLCQRPDGALYGSLHFDPEACSFRELLLEDGYNVYQSEAHGLPLHLPGCKSPHRDPAPRGPARFLPLPGLPPAPPEPPGILAPQPPDVGSSDPLSMVYPSQGRSPSYAS
B4: GLP-1RA/FGF21 Fc fusion protein SEQ ID NO: 225 (Fc fusion)
chain: GHGEGTFTSDKSKQLEEEAVRLFIEWLKAGGPKKIRYSPAPAPAPAPAPAGGG[… human IgG1 Fc with changes …]GGGSGSAHPIPDSSPLLQFGGQVRQRYLYTDDACQTEAHLEIREDGTVGGAADQSPESLLQLKALKPGVIQILGVKTSRFLCQRPDGALYGSLHFDPEACSFRELLLEDGYNVYQSEAHGLPLHLPGCKSPHRDPAPRGPARFLPLPGLPPAPPEPPGILAPQPPDVGSSDPLSMVYPSQGRSPSYAS
B5: GLP-1RA/FGF21 Fc fusion protein SEQ ID NO: 226 (Fc fusion)
chain: GHGEGTFTSDKSKQLEEEAVRLFIEWLKAGGPKKIRYSPAPAPAEAAAKEAAAKPAPAPA[… human IgG1 Fc with changes …]GGGSGSAHPIPDSSPLLQFGGQVRQRYLYTDDACQTEAHLEIREDGTVGGAADQSPESLLQLKALKPGVIQILGVKTSRFLCQRPDGALYGSLHFDPEACSFRELLLEDGYNVYQSEAHGLPLHLPGCKSPHRDPAPRGPARFLPLPGLPPAPPEPPGILAPQPPDVGSSDPLSMVYPSQGRSPSYAS
B6: GLP-1RA/FGF21 Fc fusion protein SEQ ID NO: 227 (Fc fusion)
chain: GHGEGTFTSDKSKQLEEEAVRLFIEWLKAGGPKKIRYSAEAAAKEAAAKEAAAKGGG[… human IgG1 Fc with changes …]GGGSGSAHPIPDSSPLLQFGGQVRQRYLYTDDACQTEAHLEIREDGTVGGAADQSPESLLQLKALKPGVIQILGVKTSRFLCQRPDGALYGSLHFDPEACSFRELLLEDGYNVYQSEAHGLPLHLPGCKSPHRDPAPRGPARFLPLPGLPPAPPEPPGILAPQPPDVGSSDPLSMVYPSQGRSPSYAS
B7: GLP-1RA/FGF21 Fc fusion protein SEQ ID NO: 228 (Fc fusion)
chain: GHGEGTFTSDKSKQLEEEAVRLFIEWLKAGGPKKIRYSAEAAAKEAAAKEAAAKEAAKALEAEAAKEAAKEAAKEAAKAGGG[… human IgG1 Fc with changes …]GGGSGSAHPIPDSSPLLQFGGQVRQRYLYTDDACQTEAHLEIREDGTVGGAADQSPESLLQLKALKPGVIQILGVKTSRFLCQRPDGALYGSLHFDPEACSFRELLLEDGYNVYQSEAHGLPLHLPGCKSPHRDPAPRGPARFLPLPGLPPAPPEPPGILAPQPPDVGSSDPLSMVYPSQGRSPSYAS

Molecular target: Monkey GLP-1R (monkey)
Experiment: cell-based or functional assay

Binder	HTRF cAMP EC50
B1	0.064 nM
B2	0.14 nM

Molecular target: T1, Mouse GLP-1R (mouse, UniProt O35659 22-463)
T1 sequence (looked up): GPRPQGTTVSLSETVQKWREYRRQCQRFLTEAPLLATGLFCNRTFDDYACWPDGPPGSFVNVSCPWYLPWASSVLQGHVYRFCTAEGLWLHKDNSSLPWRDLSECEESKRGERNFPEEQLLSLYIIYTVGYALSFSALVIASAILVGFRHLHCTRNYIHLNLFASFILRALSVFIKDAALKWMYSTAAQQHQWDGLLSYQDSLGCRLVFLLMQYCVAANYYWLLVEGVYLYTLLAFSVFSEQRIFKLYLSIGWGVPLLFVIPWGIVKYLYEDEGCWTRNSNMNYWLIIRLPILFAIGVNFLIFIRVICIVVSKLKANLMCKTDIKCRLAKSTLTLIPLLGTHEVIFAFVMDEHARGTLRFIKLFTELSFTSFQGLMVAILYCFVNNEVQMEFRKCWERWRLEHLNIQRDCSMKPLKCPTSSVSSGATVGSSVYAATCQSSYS
Experiment: cell-based or functional assay

Binder	HTRF cAMP EC50
B1	0.113 nM
B2	0.129 nM
B3	0.251 nM
B4	0.0616 nM
B5	0.0435 nM
B6	0.0408 nM
B7	0.0301 nM

Molecular target: human glucagon-like peptide-1 (GLP-1) receptor (human, UniProt P43220 24-463)
Experiment: cell-based or functional assay

Binder	HTRF cAMP EC50
B1	0.0377 nM
B3	0.227 nM
B4	0.128 nM
B5	0.0641 nM
B6	0.0614 nM
B7	0.0492 nM
